Measured values: patent US20260258029A1, “CHROMANE AMIDINE MONOBACTAM COMPOUNDS FOR THE TREATMENT OF BACTERIAL INFECTIONS” (priority 2022, published 2026)
The name of at least one read-out is uncertain.

Legend:
Format in all cases: cell-based
[1] = tested on: Pseudomonas aeruginosa expressing AmpC (CL5701); assay: Growth inhibitory concentration (OD600), P. aeruginosa CL5701, with relebactam; conditions: lowest concentration inhibiting 95% of bacterial growth, BLi relebactam 4 μg/mL, 35±2° C., 22 hours
[2] = tested on: Escherichia coli expressing NDM-1 (CLB30016); assay: Growth inhibitory concentration (OD600), E. coli CLB30016, with relebactam; conditions: lowest concentration inhibiting 95% of bacterial growth, BLi relebactam 4 μg/mL, 35±2° C., 22 hours
[3] = tested on: Acinetobacter baumannii expressing TEM-1, AmpC, and Oxa-24/40 (CL6188); conditions: lowest concentration inhibiting 95% of bacterial growth; BLi relebactam 4 μg/mL; 35±2° C., 22 hours; OD600

Compound	PA—CL5701 MITC95 [1] [µM]	EC—CLB30016 MITC95 [2] [µM]	AB—CL6188 MITC95 [3] [µM]
COC[C@@H]1C[C@H](CNC(=N)c2ccc3c(c2)CC[C@H]([C@](C)(O/N=C(\C(=O)N[C@@H]2C(=O)N(OS(=O)(=O)O)C2(C)C)c2csc(N)n2)C(=O)O)O3)CCN1 [Compound 60, (S)-2-((((Z)-1-(2-aminothiazol-4-yl)-2-(((S)-2,2-dimethyl-4-oxo-1-(sulfooxy)azetidin-3-yl)amino)-2-oxoethylidene)amino)oxy)-2-((R)-6-(N-(((2S,4R)-2-(methoxymethyl)-piperidin-4-yl)methyl)carbamimidoyl)chroman-2-yl)propanoic acid]	3.125	6.25	6.25
COC[C@@H]1C[C@@H](CNC(=N)c2ccc3c(c2)CC[C@H]([C@](C)(O/N=C(\C(=O)N[C@@H]2C(=O)N(OS(=O)(=O)O)C2(C)C)c2csc(N)n2)C(=O)O)O3)CCN1 [Compound 63, (S)-2-((((Z)-1-(2-aminothiazol-4-yl)-2-(((S)-2,2-dimethyl-4-oxo-1-(sulfooxy)azetidin-3-yl)amino)-2-oxoethylidene)amino)oxy)-2-((R)-6-(N-(((2S,4S)-2-(methoxymethyl)-piperidin-4-yl)methyl)carbamimidoyl)chroman-2-yl)propanoic acid]	3.125	6.25	6.25
CC1(C)[C@H](NC(=O)/C(=N\O[C@](C)(C(=O)O)[C@H]2CCc3cc(C(=N)NCC[C@@H]4C[C@H]4CN)ccc3O2)c2csc(N)n2)C(=O)N1OS(=O)(=O)O [Compound 66, (S)-2-((R)-6-(N-(2-((1S,2R)-2-(aminomethyl)cyclopropyl)ethyl)carbamimidoyl)-chroman-2-yl)-2-((((Z)-1-(2-aminothiazol-4-yl)-2-(((S)-2,2-dimethyl-4-oxo-1-(sulfooxy)azetidin-3-yl)amino)-2-oxoethylidene)amino)oxy)propanoic acid]	1.563	6.25	3.125
CO[C@]1(CNC(=N)c2ccc3c(c2)CC[C@H]([C@](C)(O/N=C(\C(=O)N[C@@H]2C(=O)N(OS(=O)(=O)O)C2(C)C)c2csc(N)n2)C(=O)O)O3)CC[C@@H](N)CC1 [Compound 68, (S)-2-((R)-6-(N-(((1r,4R)-4-amino-1-methoxycyclohexyl)methyl)carbamimidoyl)-chroman-2-yl)-2-((((Z)-1-(2-aminothiazol-4-yl)-2-(((S)-2,2-dimethyl-4-oxo-1-(sulfooxy)azetidin-3-yl)amino)-2-oxoethylidene)amino)oxy)propanoic acid]	3.125	12.5	6.25
CO[C@]1(CNC(=N)c2ccc3c(c2)CC[C@H]([C@](C)(O/N=C(\C(=O)N[C@@H]2C(=O)N(OS(=O)(=O)O)C2(C)C)c2csc(N)n2)C(=O)O)O3)CC[C@H](N)CC1 [Compound 69, (S)-2-((R)-6-(N-(((1s,4S)-4-amino-1-methoxycyclohexyl)methyl)carbamimidoyl)-chroman-2-yl)-2-((((Z)-1-(2-aminothiazol-4-yl)-2-(((S)-2,2-dimethyl-4-oxo-1-(sulfooxy)azetidin-3-yl)amino)-2-oxoethylidene)amino)oxy)propanoic acid]	3.125	12.5	6.25
